Reference: publication PMC12040169 (PLOS Biology, 2025)
Some of the results follow.

These compounds were tested on T1, C. trachomatis L2/434/Bu expressing GFP (CTL2-GFP). Settings: total inclusion area; 28.5 h, 10 µM; inhibitor.
T1 construct: L2/434/Bu GFP intracellular growth in HeLa cells
Set-up: species or system HeLa; C. trachomatis total inclusion area by high-content imaging, normalised to DMSO
Outline: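 Post-fluorescence-read fixation, DNA staining with Hoechst and high-content imaging; GFP inclusion area and number per well, and nuclei counts, used as proxies for bacterial growth and host viability.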

Point of comparison: `O=C(Nc1ccccn1)c1c(O)n(Cc2ccccc2)c2ccccc2c1=O` [CBK291213], “% of control remaining” value 90.041. Against it:
- O=C(c1coc(COc2cccc(F)c2)n1)N1CC(n2cccn2)C1 [CBK306842] — lower, 59.6412
- Cc1nn(CCNC(=O)C(c2ccc(F)cc2)N(C)C)c(C)c1C (stereo not drawn) [CBK282009] — lower, 77.1455
- Nn1c(CSc2ccccn2)nnc1CSc1ccccn1 [CBK266987] — higher, 113.108
- Cc1c(C(=O)C2=C(O)C(=O)N(Cc3cccnc3)C2c2ccc(F)cc2)cnn1-c1ccccc1 (stereo not drawn) [CBK266541] — higher, 97.7641
- Cc1cccc2c(C(=O)NCc3ccc(S(N)(=O)=O)cc3)cc(-c3ccccc3Cl)nc12 [CBK267743] — higher, 90.1669
- O=C(O)c1ccc(S(=O)(=O)c2ccc(Oc3ccc4c(c3)C(=O)N(c3cccc(C(=O)O)c3)C4=O)cc2)cc1 [CBK263608] — higher, 111.442
- COc1cncc(-c2ccc(N3CCN(CCN(C)C)CC3)nc2)c1 [CBK037720] — higher, 138.734
- COc1ccccc1OCC(=O)N1CCC2(CCNC2)C1 (stereo not drawn) [CBK156703C] — lower, 78.2725
- O=C(Nc1ccc2c(c1)nc1n2CCOC1)C1CCCCC1 [CBK307570] — lower, 75.7484
- Cc1ccc(/C=N/NC(=O)CN(c2ccccc2)S(=O)(=O)c2ccccc2)c(C)c1C [CBK262098] — higher, 111.774
- CN(C)c1ccc(CCNC(=O)c2c3c(nn2C)CCCC3)cc1 [CBK281824] — lower, 84.5527
- COCCC(=O)N1CCC(F)CC1 [CBK200399] — lower, 45.2414
- CNC(=O)C1(Cc2ccc(-c3cccs3)cc2)CCN(C(=O)C2CCCCC2)CC1 [CBK285793] — higher, 104.541
- O=C(NCCC1=CCCCC1)c1cnc2n(c1=O)CCS2 [CBK287373] — higher, 96.8724
- CCNC(=O)Nc1ncc(-c2ccc(C(C)(C)C)cc2)c2cccnc12 [CBK070632] — higher, 101.632
- O=C(c1cc(C2CC2)on1)N1CCn2cc(C(F)(F)F)nc2C1 [CBK282425] — higher, 117.792
- CCN1CC(C(=O)NCc2ccc(CN3CCCCC3)cc2)CC1=O (stereo not drawn) [CBK281400] — higher, 98.3863
- COc1ccc(-c2nc(NC(=O)c3cnccn3)cnc2-c2ccc(F)cc2)cc1 [CBK037150] — higher, 93.4346
- Cc1cc(N2CCOCC2)nc2ccc(NC(=O)c3ccncc3)cc12 [CBK288587] — lower, 87.2476
- O=C(CN1C(=O)N2CCN=C2c2ccccc21)N1CCCCC1 [CBK283865] — higher, 93.774
- COC(=O)c1ccc(-c2cnc(OCC3CCN(C(=O)OC(C)(C)C)CC3)nc2)nc1 [CBK170130] — lower, 59.3074
- Cc1cc(C(=O)CSc2nnc(C(C)C)n2Cc2ccco2)c(C)n1C [CBK295178] — higher, 118.628
- C=CCNC(=O)C1CCN(c2nc3ccccc3n2C)CC1 [CBK283955] — higher, 93.087
- CC1(C)Cc2ccccc2C(NCC(=O)O)=N1 [CBK262562] — higher, 94.8824
- COc1cccc(-c2cccc(NS(=O)(=O)c3ccc4c(c3)CCC(=O)N4)c2)c1 [CBK286372] — lower, 85.443
- CN(C)c1ccc(C(=O)N2C3CCC2CC(O)(c2ccco2)C3)cc1 (stereo not drawn) [CBK284117] — lower, 0
- CCn1nc(C)c(C(C)NC(=O)C(C)n2cc(Cl)cn2)c1C (stereo not drawn) [CBK281550] — higher, 105.787
- Cc1ccc(C(=O)O/C(=C/c2nc3ccccc3n2Cc2cccc3ccccc23)c2ccc(C)cc2)cc1 [CBK262485] — higher, 100.192
- O=C(Cn1c(-c2cccs2)cc2cccnc21)NCc1ccncc1 [CBK282456] — higher, 129.402
- Cc1cc(=O)oc2ccc(OCC(=O)Nc3ccc(S(=O)(=O)O)cc3)cc12 [CBK263185N] — higher, 93.6828
- COC(=O)c1c(NC(=S)NC(=O)c2c(Br)c(C)nn2C)sc2c1CCCCCC2 [CBK267486] — higher, 105.975
- O=C(Cc1ccccc1F)NCCn1nc(-c2ccco2)ccc1=O [CBK283705] — higher, 102.498
- Cc1cc(Cl)ccc1NC(=O)COCC(=O)O [CBK057723] — lower, 88.1123
- O=S(=O)(Nc1ccc(N2CCNCC2)c2ccccc12)c1ccc(Cl)s1 [CBK003146C] — lower, 50.6799
- Cc1cnc2c(c1)cc(C1CCOCC1)n2CC(=O)N(C)C [CBK284754] — lower, 72.2211
- Cc1ccc(N2CCN(CC(O)COc3ccc(C(=O)c4ccc(Cl)cc4)cc3)CC2)c(C)c1 (stereo not drawn) [CBK266117] — higher, 123.891
- CCCc1ccc(S(=O)(=O)Nc2cccc(C(=O)N3CCN(C)CC3)c2)cc1 [CBK039034] — lower, 13.4377
- CC(N)C1CCCCN1S(=O)(=O)c1ccc(OCc2ncnn2C)cc1 (stereo not drawn) [CBK304272C] — lower, 49.2861
- Cc1cc(C)nc(N/C(=N/C(=O)CCN2C(=O)c3ccccc3C2=O)Nc2cccc(Cl)c2)n1 [CBK266507] — higher, 139.31
- Cc1ccc(Cc2c(C)[nH]c3[nH]n(-c4ccccc4)c(=O)c3c2=O)cc1 [CBK270273] — lower, 77.129
- CSc1ccc(CNC(=O)c2sc3nc(C)nc(N4CCCC4)c3c2C)cc1 [CBK294432] — higher, 127.903
- O=C(Nc1ccc2[nH]ccc2c1)c1ccc(Cl)cc1 [CBK159668] — lower, 83.2062
- COCCN(CCOC)c1ncc(C#N)cc1Cl [CBK306227] — lower, 33.6208
- CN1CCN(C(=O)c2ccc(NS(=O)(=O)c3cc(Cl)sc3Cl)cc2)CC1 [CBK034549] — higher, 114.154
- Cc1ccc2c(N)c(C(=O)c3ccc4c(c3)OCCO4)sc2n1 [CBK270265] — lower, 77.5166
- CCn1cncc1CN(Cc1ccc(F)cc1)CC1CCCO1 (stereo not drawn) [CBK283036] — higher, 101.105
- O=S(=O)(NC1CCCCC1)c1ccc(S(=O)(=O)N2CCOCC2)cc1 [CBK269618] — lower, 88.6889
- CCn1c(SCC(=O)Nc2ccc(Br)cc2F)nnc1-c1ccc(OC)cc1 [CBK266172] — higher, 133.754
- CC(Cc1c[nH]c2ccccc12)NC(=O)CSS(=O)(=O)O (stereo not drawn) [CBK260942N] — higher, 96.5042
- Cc1nnc(CSc2nnc(-c3ccc(Cl)cc3)[nH]2)o1 [CBK270241] — higher, 91.735
- CC[C@H]1CCCCN1C(=O)c1sc2ncccc2c1Cl [CBK092276] — lower, 3.627
- O=C(O)c1ccc(N2C(=O)/C(=C/c3c[nH]c4ccccc34)SC2=S)cc1 [CBK263085] — higher, 114.932
- O=C(Cn1cccn1)N1CCc2[nH]c3ccccc3c2C1 [CBK281839] — higher, 116.59
- O=C(O)C1(Oc2ccc3ccccc3c2)CCN(C2CCNCC2)CC1 [CBK306615] — lower, 86.6551
- COc1ccc(-n2ncc(-c3cccnc3)n2)cn1 [CBK112827] — lower, 74.3886
- C[C@H](Nc1ccc(C(F)(F)F)cc1[N+](=O)[O-])C(=O)NCCOc1ccccc1F [CBK297535] — lower, 59.8993
- C=CCn1c(NCc2ccco2)nc2ccccc21 [CBK269751] — higher, 101.22
- CC(NC(=O)Cc1ccc(-c2ccccc2)cc1)c1cccnc1 (stereo not drawn) [CBK295147] — higher, 102.635
- CCC1CN(CC(=O)NCc2ccc(OCC(N)=O)cc2)CCO1 (stereo not drawn) [CBK305774] — lower, 51.2145
- CCOC(=O)c1ccoc1C[N+](C)(CC)CC [CBK007022I] — lower, 64.9656
- Cc1ccc(NC(=O)c2cc(N3C(=O)c4ccc(C(=O)O)cc4C3=O)ccc2N2CCCCC2)cc1 [CBK265274] — higher, 104.862
- O=C(c1cc[nH]c1)N1CCCC2(CCN(C(=O)c3ccoc3)C2)C1 (stereo not drawn) [CBK131629] — lower, 78.3708
- O=C(CCOc1ccc(F)cc1)Nc1cnc(-c2ccc(F)cc2)c(-c2ccoc2)n1 [CBK037166] — higher, 94.6772
- CCc1nn(C)cc1CNC1CCCN(c2ccc(C#N)cc2)C1=O (stereo not drawn) [CBK304176] — lower, 37.1038
- Cc1ccc(CN2CCC(N3C(=O)NC4(CCN(CC(C)C)CC4)C3=O)CC2)cc1C [CBK285822] — higher, 93.8188
- Cc1ccccc1OCCCn1cncc1-c1cn(C)nc1C [CBK281813] — higher, 106.8
- O=C(c1c[nH]c2ccccc12)C(O)C(c1ccccc1)N1CCOCC1 (stereo not drawn) [CBK267802] — higher, 103.656
- COc1ccc([C@@]23CC[C@@H](NC(=O)c4ccc(SC(F)(F)F)cc4)C[C@@H]2N(C)CC3)cc1OC [CBK076654T] — higher, 98.0483
- CN1CCOc2cc(S(=O)(=O)Nc3cccc(-c4cnco4)c3)ccc21 [CBK067119] — lower, 87.8861
- CC(=O)Nc1ccc([C@@H](O)[C@H]2COCC(=O)N2C)cc1 [CBK289059] — higher, 138.925
- CC(C)NC(=O)N[C@H]1CCN2C(=O)c3cc(-c4ccc(F)cc4F)ccc3NC(=O)[C@H]12 [CBK289346] — higher, 102.711
- CCN(CCO)C(=O)c1coc(COc2ccc3sc(C)nc3c2)n1 [CBK307321] — higher, 95.773
- CC(=O)N(C)[C@H]1CC[C@]2(CC1)CNC(=O)c1cc(C)ccc1O2 [CBK281690] — higher, 91.3876
- OC(COc1ccc(OC(F)(F)F)cc1)CN1CCN(c2nc3ccc(Cl)cc3s2)CC1 (stereo not drawn) [CBK074639] — lower, 81.4011
- COc1ccc(C(=O)Nc2ccccc2)cc1S(=O)(=O)Nc1cccnc1 [CBK266771] — higher, 101.901
- O=C(O)c1cc(NCc2ccccc2)ccc1N1CCOCC1 [CBK287099] — higher, 105.871
- CS(=O)(=O)N1CCc2cc(S(=O)(=O)NCCc3c[nH]c4ccccc34)ccc21 [CBK268487] — higher, 103.121
